This note sets out measurements from article PMC4336329 (PLoS ONE, 2015).

SMILES strings stand for the structures. The campaign covered roughly 310,000 compounds. About 14,000 (4.5%) showed an effect of 50% or more. Effects have a minus sign here. The list shows a part of the results.
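Note: peak tail current of the secondary pulse compared with the same well before compound.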

The target in the test is human ether-à-go-go-related gene (hERG) potassium channel (human, UniProt Q12809). The experiment in a line: primary screen, population patch clamp on CHO cells stably expressing hERG.
Chain of human ether-à-go-go-related gene (hERG) potassium channel (Q12809 whole entry, looked up): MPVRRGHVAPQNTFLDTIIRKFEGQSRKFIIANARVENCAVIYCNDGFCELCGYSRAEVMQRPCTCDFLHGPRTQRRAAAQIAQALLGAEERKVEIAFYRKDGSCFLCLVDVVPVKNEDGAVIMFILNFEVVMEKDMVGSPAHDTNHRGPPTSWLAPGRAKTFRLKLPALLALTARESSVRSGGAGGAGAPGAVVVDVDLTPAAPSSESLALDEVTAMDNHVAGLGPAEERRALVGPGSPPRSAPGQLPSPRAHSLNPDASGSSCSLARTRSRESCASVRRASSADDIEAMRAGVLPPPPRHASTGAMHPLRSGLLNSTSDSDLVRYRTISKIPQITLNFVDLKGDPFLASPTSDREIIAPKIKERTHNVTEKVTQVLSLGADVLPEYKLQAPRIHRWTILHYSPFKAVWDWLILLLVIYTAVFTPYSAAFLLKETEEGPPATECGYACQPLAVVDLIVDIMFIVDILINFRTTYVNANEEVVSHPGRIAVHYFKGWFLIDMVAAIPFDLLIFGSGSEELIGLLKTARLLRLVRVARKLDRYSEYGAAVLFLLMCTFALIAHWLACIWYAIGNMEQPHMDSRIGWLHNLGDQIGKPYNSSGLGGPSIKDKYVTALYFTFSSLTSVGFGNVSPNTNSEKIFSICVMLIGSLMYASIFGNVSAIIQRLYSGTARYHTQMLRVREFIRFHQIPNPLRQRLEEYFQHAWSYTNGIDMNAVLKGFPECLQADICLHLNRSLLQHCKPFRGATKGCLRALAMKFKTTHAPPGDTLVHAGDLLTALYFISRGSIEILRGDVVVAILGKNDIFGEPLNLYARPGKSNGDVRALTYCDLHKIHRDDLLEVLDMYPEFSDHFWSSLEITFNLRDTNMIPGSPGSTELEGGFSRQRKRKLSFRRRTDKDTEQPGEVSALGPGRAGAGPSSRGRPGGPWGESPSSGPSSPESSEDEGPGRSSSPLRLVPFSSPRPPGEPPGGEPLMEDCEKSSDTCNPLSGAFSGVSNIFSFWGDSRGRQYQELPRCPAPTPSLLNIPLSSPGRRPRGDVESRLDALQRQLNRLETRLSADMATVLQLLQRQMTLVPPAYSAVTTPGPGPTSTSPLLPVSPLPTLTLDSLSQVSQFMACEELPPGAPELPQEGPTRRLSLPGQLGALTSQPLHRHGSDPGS
In the case of `CN1CCN(C(=O)CN(c2ccccc2)S(=O)(=O)N(C)C)CC1`, the “hERG current change (%, negative = inhibition) at 10uM” value was determined as 31.2%. As for `CCOC(=O)N1CCC(N2C(=O)c3ccccc3C2Nc2ccc(S(=O)(=O)N3CCCCC3)cc2)CC1` (stereo not drawn), the “hERG current change (%, negative = inhibition) at 10uM” value is on record as -58%. Next, `CC(C)(C)c1ccc(-c2nc3n(c(=O)c2C#N)CCS3)cc1`: -5.18%.

For `CN(c1cccc(NC(=O)COc2ccccc2)c1)S(C)(=O)=O`, the “hERG current change (%, negative = inhibition) at 10uM” value is on record as -23.3%. Next, `COc1cccc(C2=NOC(C(=O)N3CCC4(CC3)OCCO4)C2)c1` (stereo not drawn): -15.7%; `Cc1ccc(S(=O)(=O)N2CCC(NC(=O)c3cccnc3)CC2)cc1Cl`: -2.56%. Take `CCc1nnc(SCC(=O)NCCC2=CCCCC2)nc1CC`: the “hERG current change (%, negative = inhibition) at 10uM” value was -7.09%. With `CC(C)(C)CC(=O)NCCc1csc(-c2ccccc2)n1` the figure was -7.63%; with `Cc1onc(-c2ccccc2)c1C(=O)OCC(=O)Nc1cc(S(=O)(=O)N2CCOCC2)ccc1Cl`, 8.31%. With `CCCCCN(C(=O)CN(C)Cc1ccc(OC)cc1OC)c1c(N)n(CCCC)c(=O)[nH]c1=O` the figure was 4.94%. With `COc1ccc(/C=C/c2c(-c3cccc(C)c3)oc3ccc(-c4ccc5c(c4)OCO5)cc23)cc1` the figure was 4.32%; with `Cc1cccc(-c2noc(CN(C(C)C)S(=O)(=O)c3ccc(F)cc3)n2)c1`, 5.51%; with `COc1ccc(CCNC(=O)c2c(Cl)ccc(Cl)c2OC)cc1OC`, -8.6%. Take `COc1ccc(NC(=O)c2ccc(C(=O)c3ccccc3)o2)cc1`: the “hERG current change (%, negative = inhibition) at 10uM” value is recorded as 11.2%. With `CCN(CC)C(=O)CN(c1cc(Cl)ccc1OC)S(=O)(=O)c1ccc(C)c([N+](=O)[O-])c1` the figure was 18.7%; with `CCC(C)Nc1ccc(NC(C)CC)cc1` (stereo not drawn), -19.8%. With `CC(C)(C)c1ccc(S(=O)(=O)N2CCN(CCC#N)CC2)cc1` the figure was 8.07%.

Regarding `Cc1nnsc1C(=O)N1CCN(c2cc(C(F)(F)F)ccn2)CC1`, the “hERG current change (%, negative = inhibition) at 10uM” value is -6.79%. With `O=C(CCCC(=O)OCC(F)(F)C(F)F)Nc1ccc(NC(=O)CCCC(=O)OCC(F)(F)C(F)F)cc1`, the “hERG current change (%, negative = inhibition) at 10uM” value is given as 26%.

For the compound `O=C(Cn1nc(-c2ccccc2F)ccc1=O)Nc1ccc(S(=O)(=O)N2CCCCCC2)cc1`, the “hERG current change (%, negative = inhibition) at 10uM” value was 22%. With `COc1ccc(C(=O)/C=C2\Sc3ccccc3N2C)cc1` the figure was 11.1%. Next, `COc1ccc(C(=O)OCC(=O)Nc2ccc(F)cc2F)cc1OC`: 12%. Turning to `Cc1ccc(CNC(=O)c2ccccc2NC(=O)C2=CSCCO2)cc1`, the “hERG current change (%, negative = inhibition) at 10uM” value is reported as -9.42%.

Turning to `Cc1cccc(C(=O)NC2CCN(S(=O)(=O)c3ccccc3)CC2)c1`, the “hERG current change (%, negative = inhibition) at 10uM” value is reported as 3.41%. With `CCN1C(=O)CSc2ccc(C(=O)NCc3ccccc3OC)cc21` the figure was -12.7%; with `Cc1ccc(NP(=O)(Nc2ccc(C)cc2)Oc2ccccc2)cc1`, -3.29%.

As for `O=C(O)/C=C\C(=O)O.O=[N+]([O-])c1ccc2nc(N3CCNCC3)ccc2c1`, the “hERG current change (%, negative = inhibition) at 10uM” value is -14.4%. Next, `Nc1ncnc2c1nc(Br)n2[C@@H]1O[C@@H]2COP(=O)([O-])O[C@H]2[C@H]1O.[Na+]`: 7.03%; `Cc1ccc(S(=O)(=O)CCN2CCC(n3cccc3)CC2)cc1`: 2.58%. Next, `CC(CN1CCN(C)CC1)OC(=O)c1ccc(Cl)cc1.Cl` (stereo not drawn): -19.9%; `CCN(CC(=O)Nc1ccccc1C(F)(F)F)C(=O)COc1cccc2c1OC(C)(C)C2`: -8.33%; `CCOC(=O)C1CCN(C(=O)C2CC(=O)N(c3ccc(C)cc3)C2)CC1` (stereo not drawn): -34.2%. With `O=C(Nc1ccccc1C(F)(F)F)C(O)(c1ccccc1)C1CCCCC1` (stereo not drawn) the figure was 17.4%. Regarding `CCC(CO)Nc1ccc([N+](=O)[O-])c2cccnc12` (stereo not drawn), the “hERG current change (%, negative = inhibition) at 10uM” value is -42.7%. Consider `CCOc1ccc(/C=C2\SC(=O)N(CCNC(=O)CN3C(=O)NC4(CCCC4)C3=O)C2=O)cc1OC`, for which the “hERG current change (%, negative = inhibition) at 10uM” value is on record as 14.1%. Next, `CC1(c2ccccc2)NC(=O)N(Cc2ccc([N+](=O)[O-])cc2)C1=O` (stereo not drawn): -31%; `COC(=O)c1ccccc1NC(=O)Cn1cnc2ccc(S(=O)(=O)N3CCC(C)CC3)cc2c1=O`: 7.62%. As to `CC(C)OCCCNC(=O)c1cc(-c2cccnc2)nc2ccccc12`, the “hERG current change (%, negative = inhibition) at 10uM” value is reported as -21.4%. Next, `O=C(NNC(=O)c1cc(-c2ccncc2)nc2ccccc12)Nc1ccc(F)cc1`: 5.44%; `O=C(O)c1ccccc1-c1nc(-c2ccccc2)c(-c2ccccc2)[nH]1`: 27.1%; `CCn1nnnc1SCC(=O)Nc1ccc2c(c1)OCCO2`: 1.1%. As to `O=C(Nc1cnc2ccccc2c1)N1CCOCC1`, the “hERG current change (%, negative = inhibition) at 10uM” value stood at 6.58%.

On to `CCOc1ccccc1NC(=O)CSc1nnc(C2CC2)n1CC`, for which the “hERG current change (%, negative = inhibition) at 10uM” value was found to be 17%.

For the compound `CCc1ccc(NC(=O)N(CCCN2CCOCC2)C(C)c2cc3cccc(OC)c3o2)cc1` (stereo not drawn), the “hERG current change (%, negative = inhibition) at 10uM” value is reported as -49.7%. Next, `CCC(C(=O)NC(C)(C)C)N(Cc1cccs1)C(=O)CNS(=O)(=O)c1ccccc1` (stereo not drawn): -5.88%. Take `O=C(NCCC(=O)N(Cc1ccco1)Cc1cccs1)c1ccc(Br)cc1`: the “hERG current change (%, negative = inhibition) at 10uM” value is recorded as -58.7%. Next, `Cc1cc(=O)oc2c1c(C(F)(F)F)nn2-c1ccccc1`: 14%; `O=C(O)CCc1nc2cc(C(F)(F)F)ccc2n(Cc2ccccc2)c1=O`: 23.8%. Consider `C/C(=N\NC(N)=S)C1(C)CC2(CC(C)(C)OC2=O)C(=O)O1` (stereo not drawn), for which the “hERG current change (%, negative = inhibition) at 10uM” value is recorded as 6.91%. For `CCCC(=O)Nc1ccccc1-c1nnn(CC(=O)Nc2ccc(OC)cc2)n1`, the “hERG current change (%, negative = inhibition) at 10uM” value is -7.55%. With `CN(C)CC/C=C1/c2ccccc2CS(=O)(=O)c2ccccc21` the figure was 10.2%; with `O=C(Cc1ccccc1)c1c[nH]c(C(=O)NCCCN2CCOCC2)c1`, -12%. On to `Cc1ccc(S(=O)(=O)N(CCCO)CC(O)CON=C2c3ccccc3-c3ccccc32)cc1` (stereo not drawn), for which the “hERG current change (%, negative = inhibition) at 10uM” value was 14.4%. Regarding `O=C(NNC(=O)c1cccc(S(=O)(=O)Nc2ccc(Cl)cc2)c1)c1ccc(=O)[nH]c1`, the “hERG current change (%, negative = inhibition) at 10uM” value is on record as -4.2%. With `CCc1cc2ccc(C)cc2nc1SCC(=O)N1CCN(C(=O)c2ccco2)CC1`, the “hERG current change (%, negative = inhibition) at 10uM” value is reported as -56%. With `CCOc1ccc(NC(=O)CNC(=O)c2ccc(OC)cc2)cc1` the figure was 0.119%. Next, `Cc1ccc(NCc2nnc(SCC(=O)NNC(=O)Cc3ccccc3)n2C)cc1`: 14.2%.

With `C=CCN1C(=O)C(Cc2ccc(C)cc2)S/C1=N/N=C/c1ccco1` (stereo not drawn), the “hERG current change (%, negative = inhibition) at 10uM” value worked out at 10%.

With `CC(NC(=O)CSc1nc2ccccc2c(=O)[nH]1)c1ccccc1` (stereo not drawn), the “hERG current change (%, negative = inhibition) at 10uM” value was -3.63%.

`Cc1ccc(Nc2nc(N)nc(CSc3ncccn3)n2)cc1`: the “hERG current change (%, negative = inhibition) at 10uM” value is -18.7%. Next, `CC(NC(=O)C1CCN(C(=O)Nc2ccccc2)CC1)c1ccccc1` (stereo not drawn): -6.12%; `O=C(CCn1nnc(-c2cccs2)n1)NC1CCCCC1`: 2.79%.

As for `CCOc1ccc(Nc2ncnc3ccc([N+](=O)[O-])cc23)cc1`, the “hERG current change (%, negative = inhibition) at 10uM” value stood at 1.23%. For the compound `COc1cc(-c2nnc(SCC3(c4ccccc4)OCCO3)o2)cc(OC)c1OC`, the “hERG current change (%, negative = inhibition) at 10uM” value is recorded as -9.14%. Take `CCNC(=O)C(Cc1ccccc1)NC(=O)OCc1ccccc1` (stereo not drawn): the “hERG current change (%, negative = inhibition) at 10uM” value came out at 8.4%. Next, `Clc1ccccc1-c1ccc(CN2CCN(c3ccccc3)CC2)o1`: 0.453%; `CCS(=O)(=O)N1Cc2ccccc2CC1C(=O)Nc1ccc(F)c(F)c1` (stereo not drawn): -7.59%; `CCC(C)NC(=O)Nc1ccc2c(c1)N(C)C(=O)c1ccccc1S2` (stereo not drawn): -12.2%.

`CCCCC(=O)OCC(=O)Nc1ccc(OC(F)F)cc1`: the “hERG current change (%, negative = inhibition) at 10uM” value is listed as -21.2%.

`C[C@@H](C(=O)NCc1ccc(S(C)(=O)=O)cc1)[C@H]1C[C@]1(C)[C@H](NC(=O)OCc1ccccc1)c1ccccc1`: the “hERG current change (%, negative = inhibition) at 10uM” value is on record as -35.4%. With `CCN(CC)c1ncnc2c1ncn2Cc1c(Cl)cccc1Cl` the figure was 2.93%.

For the compound `Nc1c(Cl)cc(C2=NCCn3nc4cc(C(F)(F)F)ccc4c32)cc1Cl`, the “hERG current change (%, negative = inhibition) at 10uM” value was 6.72%. Next, `COc1ccccc1C(=O)Nc1nnc(SCC(=O)NCc2ccco2)s1`: 4.4%; `Cc1ccc(S(=O)(=O)N2CCCN(S(=O)(=O)c3ccc(C)c(C)c3)CC2)cc1C`: 3.64%; `CCOC(=O)C1CCN(C(=O)COC(=O)CNC(=O)c2ccc(OC)cc2)CC1`: 5.52%.

As for `O=C(CSc1cccc[n+]1[O-])c1ccc(-c2ccccc2)cc1`, the “hERG current change (%, negative = inhibition) at 10uM” value is -3.84%.

Turning to `O=S(=O)(NCCOc1ccccc1)c1ccc2ccccc2c1`, the “hERG current change (%, negative = inhibition) at 10uM” value is listed as 14%. Next, `C=C1[C@@H](OC(C)=O)[C@]23C[C@@H]1[C@@H](OC(C)=O)CC2[C@]12C4C[C@H]3[C@H]1N(CC)C[C@]4(C)CC[C@@H]2O` (stereo partly drawn): -40.6%. Next, `Cc1ccc([N+](=O)[O-])c(OCCCN2CCC(Cc3ccccc3)CC2)c1.O=C(O)C(=O)O`: -89.6%. With `FC(F)(F)c1ccccc1CCN1CCNCC1` the figure was 20.9%. In the case of `Cc1nnc(SCC(=O)NCc2ccccc2)[nH]c1=O`, the “hERG current change (%, negative = inhibition) at 10uM” value is -7.09%.

As for `NC(=O)c1c(NC(=O)C(=O)N2CCOCC2)sc2c1CCCC2`, the “hERG current change (%, negative = inhibition) at 10uM” value came to 14.3%. Next, `Cc1ccc(C)c(S(=O)(=O)NCc2ccc(C(=O)N3CCCCC3C)cc2)c1` (stereo not drawn): -6.16%; `CN(c1cccc(NC(=O)COc2ccc(Cl)cc2Cl)c1)S(C)(=O)=O`: 0.0208%.
